We go through 94 molecules from PubChem BioAssay AID360 (National Center for Advancing Translational Sciences (NCATS), 2006).

The whole screen tested about 48,000 compounds, of which about 550 (1.1%) were called active. Inconclusive results (about 4%) are left out. Rule as the data show it: active = potency below about 15 µM; inconclusive = mostly about 16 µM to 33 µM; inactive = weaker than that. Some of the results follow. A value given as a limit tells only on which side of the number the result lay.
Potency is read from the fitted curve at half-maximal effect.

Chain of UniProt P04062 (P04062 whole entry, looked up): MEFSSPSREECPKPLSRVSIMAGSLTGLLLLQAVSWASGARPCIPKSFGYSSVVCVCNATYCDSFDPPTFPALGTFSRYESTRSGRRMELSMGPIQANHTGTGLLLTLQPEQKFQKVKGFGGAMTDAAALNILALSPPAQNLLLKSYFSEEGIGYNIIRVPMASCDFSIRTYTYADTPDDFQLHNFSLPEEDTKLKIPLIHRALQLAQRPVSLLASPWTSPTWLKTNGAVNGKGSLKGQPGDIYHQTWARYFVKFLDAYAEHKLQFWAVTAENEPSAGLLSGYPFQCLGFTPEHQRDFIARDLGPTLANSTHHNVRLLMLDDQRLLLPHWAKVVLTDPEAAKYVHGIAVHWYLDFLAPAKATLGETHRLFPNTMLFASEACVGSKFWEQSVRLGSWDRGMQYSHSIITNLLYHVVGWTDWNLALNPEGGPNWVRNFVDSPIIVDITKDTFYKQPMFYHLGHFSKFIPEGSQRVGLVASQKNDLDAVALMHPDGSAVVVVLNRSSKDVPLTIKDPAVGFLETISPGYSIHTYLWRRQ

The target in this assay is Lysosomal acid glucosylceramidase (Homo sapiens) (UniProt P04062). As to the kind of experiment: Glucocerebrosidase.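 Also: the screen sought inhibitors.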 The conditions noted are these: purified enzyme, resorufin glucoside fluorescence (screen aimed at inhibitors), 20 min. In outline:
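Compounds titrated against 0.2 nM normal enzyme, 30 uM resorufin beta-D-glucopyranoside substrate, citrate/phosphate buffer with taurocholate and tween-20, pH 5.9. Reaction ran 20 min at room temperature; fluorescence (Ex 548/Em 600) gave AC50.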
As to `CCCCCCn1c(N2CCC(C(N)=O)CC2)nc2c1c(=O)n(C)c(=O)n2C`, the Potency was inactive: > 76.9 µM.
Turning to `CC(=O)c1c(C(C)=O)c(C)n(-c2nc(-c3cccs3)c(C)s2)c1C`, the Potency is inactive: > 76.9 µM.
To `Cc1ccc2[nH]c(=O)c(CN(CCN3CCOCC3)C(=O)Nc3ccc(F)cc3)cc2c1` belongs inactive: > 76.9 µM; to `Brc1ccc(C2=Nn3c(nnc3-c3cccnc3)SC2)s1`, inactive: > 76.9 µM; to `C/C(NC1CCCC1)=C(/C#N)C(N)=O`, inactive: > 76.9 µM.
Regarding `O=S1(=O)CCC(NS(=O)(=O)c2cccc3cccnc23)C1` (centres undefined), the Potency was inactive: > 76.9 µM.
Under `COc1ccccc1OCc1nc2ccccc2[nH]1` stands inactive: > 76.9 µM.
Under `CC(C)C(c1nnnn1Cc1ccco1)N1CCN(C2CCCC2)CC1` (centres undefined) stands inactive: > 76.9 µM; under `CCOc1cc(N2CCOCC2)c(OCC)cc1NC(=O)COC(=O)c1cc(C)oc1C`, inactive: > 76.9 µM.
In the case of `Cc1ccc(S(=O)(=O)NC(C(=O)OCC(=O)NC2CCS(=O)(=O)C2)C(C)C)cc1` (centres undefined), the Potency is inactive: > 76.9 µM.
To `O=C(Oc1c(CN2CCOCC2)cc(Cl)c2cccnc12)c1ccc(F)cc1` belongs inactive: > 76.9 µM; to `COc1ccc(NS(=O)(=O)c2ccc(NC(=O)C3CCCO3)cc2)cc1` (centres undefined), inactive: > 76.9 µM.
Take `Cn1c(Cc2cccs2)nnc1SCc1nc2ccccc2[nH]1`: the Potency is inactive: > 76.9 µM.
Consider `CCOC(=O)c1c(C)[nH]c(C)c1C(=O)CN1C(=O)NC(CC(C)C)C1=O` (centres undefined), for which the Potency was inactive: > 76.9 µM.
To `COC(=O)c1ccccc1NC(=O)CN1CCN(C23CC4CC(CC(C4)C2)C3)CC1` belongs inactive: > 76.9 µM; to `O=C(NS(=O)(=O)c1ccccc1)c1ccccc1F`, inactive: > 76.9 µM.
With `CCCCOc1ccccc1C1CC(=O)NC2=C1C(=O)CCC2` (centres undefined), the Potency is inactive: > 76.9 µM.
Under `COc1ccc(N2CCN(S(=O)(=O)c3cccs3)CC2)cc1` stands inactive: > 76.9 µM.
In the case of `COCCSc1nnc(NC(=O)Cc2ccccc2OC)s1`, the Potency is inactive: > 76.9 µM.
To `CCC(=O)c1ccc(OCC(=O)Nc2nn3cnnc3s2)cc1` belongs “inactive”.
As to `O=C(OCCN(CCOC(=O)c1ccncc1)S(=O)(=O)c1cccs1)c1ccncc1`, the Potency was inactive: > 76.9 µM.
Regarding `CCOc1ccc(NC(=O)c2cccnc2C(=O)O)cc1`, the Potency is inactive: > 76.9 µM.
As for `O=C1OCC2=C1C(c1ccc3c(c1)OCO3)Sc1ccccc1N2` (centres undefined), the Potency result was “inactive”.
As to `COCCn1c(=NC(=O)CSCC(=O)NC2CCCCC2)sc2cc(OC)ccc21`, the Potency was inactive: > 76.9 µM.
Under `O=C(C1CCN(S(=O)(=O)Cc2ccccc2)CC1)N1CCCc2ccccc21` stands inactive: > 76.9 µM; under `CCOc1cc(C(=O)NCCOC)ccc1OC`, inactive: > 76.9 µM.
Under `COc1ccc(Cc2nnc(NS(=O)(=O)Cc3ccccc3)s2)cc1` stands inactive: > 76.9 µM.
To `Cc1ccc2nc(NC3=NCN(Cc4ccccc4)CN3)nc(C)c2c1` belongs inactive: > 76.9 µM.
In the case of `Cc1sc2nc(SCC(=O)NCc3cccs3)[nH]c(=O)c2c1C`, the Potency was inactive: > 76.9 µM.
For `CCOC(=O)c1sc(NC(=O)CSc2nnc(-c3ccc(OC)cc3)n2CCOC)nc1C`, the Potency is inactive: > 76.9 µM.
Under `COC(=O)c1c(N)c(C#N)c2n1CCCCC2` stands inactive: > 76.9 µM; under `O=C(NCC1CCCO1)c1c(O)c2c([nH]c1=O)CCCC2` (centres undefined), inactive: > 76.9 µM.
Regarding `Fc1cc2ncn(Cc3ccccc3)c2cc1F`, the Potency is inactive: > 76.9 µM.
As for `O=C(CSc1nnnn1-c1ccccc1)Nc1nsc(-c2ccccc2)n1`, the Potency was inactive: > 76.9 µM.
`CCCc1cc2c(=O)c(-c3ccccn3)coc2cc1OC`: the Potency was inactive: > 76.9 µM.
Take `COc1ccc(OC)c(C2=NOC(C(=O)Nc3cccnc3)C2)c1` (centres undefined): the Potency was inactive: > 76.9 µM.
`CCNC(=O)CN(c1ccc(C)cc1)S(=O)(=O)c1ccc(SC)cc1`: the Potency is inactive: > 76.9 µM.
For `COc1ccc(-c2noc(CCC(=O)NCc3cccnc3)n2)cc1OC`, the Potency is inactive: > 76.9 µM.
On to `O=C(CSc1nc2c(c(=O)[nH]1)CCCC2)Nc1ccc(Cl)cc1F`, for which the Potency was inactive: > 76.9 µM.
`COCCCNC(=O)c1cc2c(s1)CS(=O)(=O)C2`: the Potency was inactive: > 76.9 µM.
To `O=S(=O)(NCC1CCCO1)c1cccc(C(F)(F)F)c1` (centres undefined) belongs inactive: > 76.9 µM.
`N#Cc1ccccc1OCCN1C(=O)c2ccccc2C1=O`: the Potency is inactive: > 76.9 µM.
Regarding `O=C(NO)c1ccc(OC(F)F)cc1`, the Potency is inactive: > 76.9 µM.
In the case of `CCOC(=O)C1=C(C)N=C(/N=C/N(C)C)SC1c1ccccc1` (centres undefined), the Potency was inactive: > 76.9 µM.
Under `Cc1cnc(NC(=O)CSc2nnc(-c3ccccc3)o2)s1` stands inactive: > 76.9 µM.
Under `C=CCN(c1ccc(C(=O)N2CCN(c3ccc(F)cc3)CC2)cc1)S(C)(=O)=O` stands inactive: > 76.9 µM; under `Cc1[nH]c2ccccc2c1CCO`, inactive: > 76.9 µM.
To `O=C(c1ccccc1)c1ccc(N2CCOCC2)c(NC(=O)c2ccco2)c1` belongs inactive: > 76.9 µM; to `CC(C)C(NS(=O)(=O)c1cccc2nsnc12)C(=O)N1CCc2ccccc2C1` (centres undefined), inactive: > 76.9 µM.
In the case of `COc1cc(C(=O)Nc2cccc3ncccc23)cc(OC)c1OC`, the Potency is inactive: > 76.9 µM.
To `CCCc1nc2oc3c(NCC4CCCO4)ncnc3c2c2c1COC(C)(C)C2` (centres undefined) belongs inactive: > 76.9 µM.
Take `Cc1c(NC(=O)C(C)N2CC(C)OC(C)C2)c(=O)n(-c2ccccc2)n1C` (centres undefined): the Potency is inactive: > 76.9 µM.
In the case of `O=C(CC1CCCCC1)NC1CCCC1`, the Potency is inactive: > 76.9 µM.
Consider `CCOc1ccc(-c2nnn(CC(=O)Nc3ccccc3OC)n2)cc1OCC`, for which the Potency was inactive: > 76.9 µM.
Take `Cn1c(=O)cc(OCC(=O)NC2CCCCC2)c2ccccc21`: the Potency is inactive: > 76.9 µM.
To `O=C(Nc1ncccn1)c1cccs1` belongs inactive: > 76.9 µM; to `CCN(C(=O)c1cc2cccc(OC)c2oc1=O)c1ccccc1`, inactive: > 76.9 µM; to `Cc1ccc(Cn2c(=O)c3c(nc4n3CCCN4Cc3ccccc3)n(C)c2=O)cc1`, inactive: > 76.9 µM.
To `O=C(Nc1cc(C(F)(F)F)ccc1F)C1CCC1` belongs inactive: > 76.9 µM; to `CCc1nc(N(CC)CC)c2oc3ccccc3c2n1`, inactive: > 76.9 µM.
Under `Cc1cc(Cl)c(S(=O)(=O)N2CC(C)OC(C)C2)cc1OCC(N)=O` (centres undefined) stands inactive: > 76.9 µM.
For `C/C(=C\c1cc(C(=O)O)c(C)o1)CO`, the Potency was inactive: > 76.9 µM.
Under `Nc1c(S(=O)(=O)c2ccccc2)nnn1-c1ccccc1` stands inactive: > 76.9 µM.
Under `Cc1ncsc1C(=O)Nc1nc2c(s1)CCCC2` stands inactive: > 76.9 µM; under `CCOC(=O)CN1C(=O)C2(OCCCO2)c2ccccc21`, inactive: > 76.9 µM; under `CCN(CC)C(C(=O)Nc1ccc2c(c1)OCO2)c1ccccc1` (centres undefined), inactive: > 76.9 µM.
As to `CCOC(=O)N1CCN(C(=O)c2ccc(N3C(=O)c4ccccc4C3=O)cc2)CC1`, the Potency is inactive: > 76.9 µM.
Under `Cc1cc(C)c2c(CN3CCN(C)CC3)cc(=O)oc2c1` stands “inactive”; under `CCOCCCNC(=O)C(NC(=O)c1ccc2c(c1)OCO2)c1ccc(OC)cc1` (centres undefined), inactive: > 76.9 µM.
To `O=C(NC1CCCCC1)C(c1ccccc1)N1CCOCC1` (centres undefined) belongs inactive: > 76.9 µM; to `CCCCn1c(NC(C)CC)nc2c1c(=O)[nH]c(=O)n2C` (centres undefined), inactive: > 76.9 µM.
On to `CC(=O)Nc1cccc(NC(=O)c2cc3ccccc3o2)c1`, for which the Potency is inactive: > 76.9 µM.
With `COC(=O)c1ccc(COC(=O)c2[nH]c(C)c(C(C)=O)c2C)o1`, the Potency is inactive: > 76.9 µM.
To `COc1ccccc1NC(=O)N1CCCC1C(=O)Nc1ccc(NC(C)=O)cc1` (centres undefined) belongs inactive: > 76.9 µM.
For the molecule `COc1ccc(CCNc2oc(-c3ccco3)nc2C#N)cc1`, the Potency was inactive: > 76.9 µM.
Under `O=C(NCc1ccccn1)c1ccc(Cl)cc1Cl` stands inactive: > 76.9 µM.
Regarding `S=c1[nH]nc(-c2cccc(Br)c2)o1`, the Potency was inactive: > 76.9 µM.
For the molecule `OCCNCC(O)Cn1ccc2ccccc21` (centres undefined), the Potency was inactive: > 76.9 µM.
With `O=C(CSc1ncnc2nc[nH]c12)N1CCN(c2ccccc2)CC1`, the Potency was inactive: > 76.9 µM.
Under `Cn1c(SCC(=O)NC2CCCCCC2)nnc1-c1cccs1` stands inactive: > 76.9 µM.
Regarding `COc1ncnc2c1oc1nc(CC(C)C)c3c(c12)CCCC3`, the Potency is inactive: > 76.9 µM.
Under `COCCn1c(CN2CCN(c3ccccc3)CC2)nc2c1c(=O)n(C)c(=O)n2C` stands inactive: > 76.9 µM; under `CC(C)n1c(SCC(=O)NCc2ccco2)nc2c1c(=O)n(C)c(=O)n2C`, inactive: > 76.9 µM.
For `CCOc1nc(S(=O)(=O)c2ccc(C)cc2)c(Cl)s1`, the Potency is inactive: > 76.9 µM.
Regarding `O=C(O)CSc1nnc(CNc2cccc(C(F)(F)F)c2)n1Cc1ccco1`, the Potency is inactive: > 76.9 µM.
With `COc1ccccc1NC(=O)N(Cc1ccco1)Cc1cc2cccc(C)c2[nH]c1=O`, the Potency was inactive: > 76.9 µM.
Under `COc1cc(C2c3c(n[nH]c3C)C(=O)N2c2ccc(C)cc2)ccc1O` (centres undefined) stands inactive: > 76.9 µM; under `O=C(CN1CCOCC1)Nc1ccc(S(=O)(=O)NC2CCCCC2)cc1`, inactive: > 76.9 µM.
For the molecule `Nn1cc(-c2ccccc2)nc1SCC(=O)NC1CCS(=O)(=O)C1` (centres undefined), the Potency was inactive: > 76.9 µM.
To `O=C1NC(=S)S/C1=C1\Sc2ccccc2N1CCCS(=O)(=O)O` belongs inactive: > 76.9 µM; to `CC1(C(=O)NC2CCCCCC2)CCC(=O)N1Cc1ccc2c(c1)OCO2` (centres undefined), inactive: > 76.9 µM.
With `CCS(=O)(=O)CCSc1nc(C)cc(C)c1C#N`, the Potency is inactive: > 76.9 µM.
Under `CSc1nc(N2CCOCC2)c2c(c1C#N)CCCCC2` stands inactive: > 76.9 µM.
To `CN1CCN(S(=O)(=O)c2ccc(NC(=O)c3csc4ccccc34)cc2)CC1` belongs “inactive”.
